Results: US20240409647A1, “BISPECIFIC BINDING PROTEINS AGAINST ALARMINS AND USES THEREOF” (SINOMAB BIOSCIENCE LIMITED, priority 2022, published 2024)

Legend:
IL-17RB = target: T1, IL-17RB (Homo sapiens, UniProt Q9NRM6); assay: ELISA, antigen binding specificity of bsBp (IL-17RB); design: key: −: no binding; +: weak; ++: moderate; +++: strong binding; N/A refers to no binding affinity; conditions: 33.5 nM; antigen coated at 2 μg/mL
T1 construct: purchased R&D systems
T1 sequence (Q9NRM6 18-502): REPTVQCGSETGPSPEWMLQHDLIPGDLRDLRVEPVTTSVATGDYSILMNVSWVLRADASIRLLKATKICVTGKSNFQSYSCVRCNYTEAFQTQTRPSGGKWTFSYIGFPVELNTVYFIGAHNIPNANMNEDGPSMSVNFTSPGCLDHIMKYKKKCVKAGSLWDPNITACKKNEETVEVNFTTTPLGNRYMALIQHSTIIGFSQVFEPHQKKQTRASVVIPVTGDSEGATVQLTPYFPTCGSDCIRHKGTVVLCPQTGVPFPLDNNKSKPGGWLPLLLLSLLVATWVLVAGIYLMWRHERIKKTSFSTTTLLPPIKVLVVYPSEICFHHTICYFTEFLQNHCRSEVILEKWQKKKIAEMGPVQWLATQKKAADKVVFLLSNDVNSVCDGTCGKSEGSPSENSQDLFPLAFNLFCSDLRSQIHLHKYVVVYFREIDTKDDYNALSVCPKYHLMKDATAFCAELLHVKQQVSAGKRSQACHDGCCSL
Experimental: (§1) Binding specificities of bsBp were evaluated by standard ELISA assays. Briefly, ELISA strips were coated with the respective target antigens, including IL17RB, IL-33, or TSLP (R&D systems) at a final concentration of 2 μg/mL. Bispecific antibodies were added at 33.5 nM to ELISA strips coated with the desired antigen. After incubation under room temperature for 2 hours, ELISA strips were washed five times with PBS. […] No result is provided for SM17-human TSLPR as the yield was too low to be detected.

IL-33 [1] = target: T2, IL-33 (Homo sapiens, UniProt O95760); assay: Bio-Layer Interferometry (Octet), binding kinetics of bsBp to human IL-33
T2 construct: purchased R&D systems
T2 sequence (O95760 95-270): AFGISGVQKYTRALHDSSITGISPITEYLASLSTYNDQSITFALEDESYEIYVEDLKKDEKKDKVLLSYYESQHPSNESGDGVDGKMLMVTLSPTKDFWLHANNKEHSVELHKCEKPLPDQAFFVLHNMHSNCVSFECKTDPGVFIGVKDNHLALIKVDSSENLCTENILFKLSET
Experimental: The binding affinity of bsBp to the targeted alarmins was determined using a bio-Layer Interferometry analysis (Octet ReD96 system, Sartorius). bsBp or SM17 (20 μg/mL) was immobilized on biosensors via binding to anti-human Fab CH1 region; serially diluted human IL33 and TSLP (158.7 nM, 79.4 nM, 39.7 nM) (R&D systems) were added to plot the association and dissociation curve according to the manufacturer's specification. Biosensors immobilized with irrelevant antibody (SM03, anti-human CD22 chimeric IgG1 antibody, SinoMab BioScience Limited, 20 μg/mL) were used as control reference.

Human PBMCs = assay: CCL8 and IFNγ release from human PBMC incubated with IL-12 and IL-33; type: cell-based; design: key to Intensity of specific cytokine inhibition, IFNγ / Intensity of specific cytokine inhibition, CCL-8: −: no binding; +: weak; ++: moderate; +++: strong binding; N/A refers to no binding affinity; conditions: 5 μg/ml
Experimental: Human PBMCs (4×10^5 per group, Ixcells) were incubated with IL-2 (10 unit/mL, PeproTech) and various alarmin/alarmin combinations to mimic the pro-inflammatory cytokines release during allergic diseases. For IL-5 and IL-13 releases, PBMCs were incubated with IL-2 and three alarmins (all 10 ng/ml) for three days. For CCL17 release, PBMC was incubated with TSLP (10 ng/ml) for 1 day. For CCL8 and IFNγ releases, PBMCs were incubated with IL-12 (10 ng/ml, Sino Biological) and IL-33 (10 ng/ml) for 1 day. Cells were pretreated with SM17 (5 μg/ml) or IgG4 isotype control (5 μg/ml) for an hour before the addition of cytokines.
Supernatants were collected and the cytokine concentration were measured by ELISA kits (R&D systems). These established assays were used to test the potency of and SM17 and bsBps. […] Results were expressed in absolute amount in pg/ml.
SM17, three different SM17-anti-IL33 bsBps and three different SM17-anti-TSLP bsBps (all at 5 μg/ml) were added to human PBMC cultures under conditions that shall induce the release of IFNγ, CCL8, CCL17 and IL-5 as described in Example 11 above. The levels of different cytokines and chemotactic factors in supernatant obtained in induced PBMC were evaluated using standard ELISA methods.

IL-33 [2] = target: T2, IL-33; assay: ELISA, antigen binding specificity of bsBp (IL-33); design: key: −: no binding; +: weak; ++: moderate; +++: strong binding; N/A refers to no binding affinity; conditions: 33.5 nM; antigen coated at 2 μg/mL
Experimental: as §1

[3] = system: ILC2 population in human PBMC; assay: ILC2 cell population in human PBMC culture (flow cytometry); type: cell-based; design: key: −: no inhibition; +: weak; ++: moderate; +++: strong inhibition; conditions: IL-2 (10 unit/mL) and three alarmins (10 ng/ml), 5 days
From the text: (§2) While alarmins are known to work in concert to enhance ILC2 and Th2 cell functions such as increase in cell population, steroids such as Dexamethasone (Dex) can negate these effects, resulting in the mitigation of type 2 immune responses [Jia, Yi et al. American Journal Of Respiratory Cell And Molecular Biology, vol. 55, 5 (2016): 675-683]. ILC2 and Th2 cell population can be determined by flow cytometry (BD FACSVerse) following standard procedures known to those skilled in the art.

[4] = system: Th2 cell population in human PBMC; assay: Th2 cell population in human PBMC culture (flow cytometry); type: cell-based; design: key: −: no binding; +: weak; ++: moderate; +++: strong binding; N/A refers to no binding affinity; conditions: IL-2 (10 unit/mL) and three alarmins (10 ng/ml), 5 days
From the text: as §2

Normal human DCs = assay: Dendritic cell potency assay, TSLP-induced CCL17 production; type: cell-based; conditions: 5 μg/mL; TSLP 10 ng/mL, 5 days
From the text: TSLP from inflamed epithelium promotes maturation of dendritic cells (DCs) to prime Th2 responses via CCL17, which induces chemotaxis of CD4+ T cells to mediate inflammation (Kitajima and Ziegler. 2013. “Cutting Edge: Identification Of The Thymic Stromal Lymphopoietin-Responsive Dendritic Cell Subset Critical For Initiation Of Type 2 Contact Hypersensitivity”. J Immunol 191: 4903-4907; Bleck et al. 2015. “Co-Expression Of Type 2 Immune Targets In Sputum-Derived Epithelial And Dendritic Cells From Asthmatic Subjects”. J Allergy Clin Immunol 136: 619-627.e5). Normal human DCs were obtained from Lonza (Bend, OR). The DCs were cultured in LGM-3 medium (Lonza). TSLP (10 ng/mL) is added into the DC cultures for 5 days in the presence of 5 μg/mL of SM17, IgG4 isotype control (Sino Biological), SM17-TSLPR bsBp (SM17 fused with TSLP receptor extracellular domain) or SM17-anti-TSLP bsBp 2 #. The supernatants are harvested and the levels of CCL17 measured by ELISA following the manufacturer's specification (R&D systems).

B1: SM17-anti IL-33 1# bsBp: bispecific binding protein, SM17 IgG fused to anti-IL-33 scFv; HC SEQ ID NO: 63, LC SEQ ID NO: 33 (antibody)
heavy: MDLLHKNMKHLWFFLLLVAAPRWVLSQVQLVQSGAEVKKPGASVKVSCKASGYTFISYWMNWVRQAPGQGLEWMGRIDPYDSEIQYNQKFKDRVTMTRDTSISTAYMELSRLRSDDTAVYYCARSGGFDWFAYWGQGTLVTVSSASTKGPSVFPLAPCSRSTSESTAALGCLVKDYFPEPVTVSWNSGALTSGVHTFPAVLQSSGLYSLSSVVTVPSSSLGTKTYTCNVDHKPSNTKVDKRV[sequence of human IgG4 Fc with S228P (EU numbers) not given]GGGSGGGGSGGGGSQVQLMQSGAEVKKPGASVKVSCKASGYTFTSYWMHWVRQAPGQGLEWMGTIYPRNSNTDYNQKFKARVTMTRDTSTSTVYMELSSLRSEDTAVYYCARPLYYYLTSPPTLFWGQGTLVTVSSGGGGSGGGGSGGGGSGGGGSDIQLTQSPSFLSASVGDRVTITCKASQDVGTAVAWYQQKPGKAPKLLIYWASTRHTGVPSRFSGSGSGTEFTLTISSLQPEDFATYYCQQAKTYPFTFGSGTKLEIK
light: DIQMTQSPSSLSASVGDRVTITCRASENINSNLAWYQQKPGKAPKLLLYDVTNLADGVPSRFSGSGSGTDYTLTISSLQPEDFATYYCQHFWGPPYTFGGGTKVEIKRTVAAPSVFIFPPSDEQLKSGTASVVCLLNNFYPREAKVQWKVDNALQSGNSQESVTEQDSKDSTYSLSSTLTLSKADYEKHKVYACEVTHQGLSSPVTKSFNRGEC
Q: What does the source list for B1?
A: Intensity of specific antigen binding, IL-17RB coated on ELISA strips (IL-17RB): +++; Kdis (IL-33 [1]): 0.000283 s⁻¹; Ka (IL-33 [1]; bsBp or SM17 immobilized at 20 μg/mL): 9810 M⁻¹ s⁻¹; CCL8 release, suppression effect as compared to SM17 (in words) (Human PBMCs): stronger suppression effect; Intensity of specific cytokine inhibition, CCL-8 (Human PBMCs; human PBMC): +; Intensity of specific cytokine inhibition, IFNγ (Human PBMCs; human PBMC): ++; Intensity of specific antigen binding, IL-33 coated on ELISA strips (IL-33 [2]): +++; Cell proliferation inhibition, ILC2 [3]: +++; Cell proliferation inhibition, Th2 [4]: +

B2: SM17-hTSLPR: SM17 fused with TSLP receptor extracellular domain; HC SEQ ID NO: 67, LC SEQ ID NO: 33 (antibody)
heavy: MDLLHKNMKHLWFFLLLVAAPRWVLSQVQLVQSGAEVKKPGASVKVSCKASGYTFISYWMNWVRQAPGQGLEWMGRIDPYDSEIQYNQKFKDRVTMTRDTSISTAYMELSRLRSDDTAVYYCARSGGFDWFAYWGQGTLVTVSSASTKGPSVFPLAPCSRSTSESTAALGCLVKDYFPEPVTVSWNSGALTSGVHTFPAVLQSSGLYSLSSVVTVPSSSLGTKTYTCNVDHKPSNTKVDKRV[sequence of human IgG4 Fc with S228P (EU numbers) not given]GGGSGGGGSGGGGSQGGAAEGVQIQIIYFNLETVQVTWNASKYSRTNLTFHYRFNGDEAYDQCTNYLLQEGHTSGCLLDAEQRDDILYFSIRNGTHPVFTASRWMVYYLKPSSPKHVRFSWHQDAVTVTCSDLSYGDLLYEVQYRSPFDTEWQSKQENTCNVTIEGLDAEKCYSFWVRVKAMEDVYGPDTYPSDWSEVTCWQRGEIRDACAETPTPPKPKLSK
light: DIQMTQSPSSLSASVGDRVTITCRASENINSNLAWYQQKPGKAPKLLLYDVTNLADGVPSRFSGSGSGTDYTLTISSLQPEDFATYYCQHFWGPPYTFGGGTKVEIKRTVAAPSVFIFPPSDEQLKSGTASVVCLLNNFYPREAKVQWKVDNALQSGNSQESVTEQDSKDSTYSLSSTLTLSKADYEKHKVYACEVTHQGLSSPVTKSFNRGEC
Q: How did the “TSLP-induced CCL17 production in DCs (in words)” value (Normal human DCs) turn out when B2 was run?
A: efficient in suppressing TSLP-induced CCL17 production
